Assay [1] addresses Flag-STAT2 wild type from HEK293T cells (human) (UniProt P52630). In words: pull-down; in vitro: purified Flag-STAT2 mixed with commercial IKK-ε (or purified TBK1), immunoprecipitated with anti-Flag, immunoblotted; both purified.
The target is the same in assay [2]. In words: co-IP; HEK293T cells co-transfected with IKK-ε and STAT2; immunoprecipitation of Flag-STAT2 from whole-cell lysates.
In assay [3] the target is Flag-STAT2 T404A expressed in HEK293T cells (human) (UniProt P52630). Described as above.

The chains behind the UniProt entries cited, without tags or fusion partners. Where a name states a change or a piece, a line headed by the entry shows the natural chain unless it says otherwise.
UniProt P52630: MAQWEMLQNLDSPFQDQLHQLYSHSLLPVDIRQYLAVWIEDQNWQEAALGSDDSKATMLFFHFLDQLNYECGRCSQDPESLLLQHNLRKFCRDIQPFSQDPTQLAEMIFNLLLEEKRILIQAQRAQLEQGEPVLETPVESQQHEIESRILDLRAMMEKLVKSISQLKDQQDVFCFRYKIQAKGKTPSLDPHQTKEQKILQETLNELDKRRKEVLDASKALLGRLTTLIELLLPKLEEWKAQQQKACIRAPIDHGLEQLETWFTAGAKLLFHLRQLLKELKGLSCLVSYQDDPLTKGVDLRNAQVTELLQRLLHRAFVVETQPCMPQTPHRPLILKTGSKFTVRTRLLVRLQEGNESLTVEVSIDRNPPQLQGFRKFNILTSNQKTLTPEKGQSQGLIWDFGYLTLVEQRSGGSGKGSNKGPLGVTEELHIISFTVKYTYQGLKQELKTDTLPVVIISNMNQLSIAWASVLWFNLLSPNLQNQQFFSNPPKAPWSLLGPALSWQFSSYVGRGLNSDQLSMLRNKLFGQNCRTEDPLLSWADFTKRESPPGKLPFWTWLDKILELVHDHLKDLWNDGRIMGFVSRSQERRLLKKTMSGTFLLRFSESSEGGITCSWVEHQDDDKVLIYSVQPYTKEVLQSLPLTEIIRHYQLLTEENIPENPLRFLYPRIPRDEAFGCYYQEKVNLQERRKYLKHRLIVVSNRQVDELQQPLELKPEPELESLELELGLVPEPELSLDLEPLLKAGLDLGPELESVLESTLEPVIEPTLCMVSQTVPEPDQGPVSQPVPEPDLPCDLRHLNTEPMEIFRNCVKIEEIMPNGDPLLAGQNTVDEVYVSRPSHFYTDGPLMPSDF

Results are given in words; binding and its absence hold for the method and conditions named. For some of these results: Binding seen in cells or lysates may run through a third protein. Some results given as binding are weak or reduced against the parent protein; the word gives no strength.

B1: IKK-ε, commercial purified protein (enzyme, UniProt Q14164 1-716)
chain: MQSTANYLWHTDDLLGQGATASVYKARNKKSGELVAVKVFNTTSYLRPREVQVREFEVLRKLNHQNIVKLFAVEETGGSRQKVLVMEYCSSGSLLSVLESPENAFGLPEDEFLVVLRCVVAGMNHLRENGIVHRDIKPGNIMRLVGEEGQSIYKLTDFGAARELDDDEKFVSVYGTEEYLHPDMYERAVLRKPQQKAFGVTVDLWSIGVTLYHAATGSLPFIPFGGPRRNKEIMYRITTEKPAGAIAGAQRRENGPLEWSYTLPITCQLSLGLQSQLVPILANILEVEQAKCWGFDQFFAETSDILQRVVVHVFSLSQAVLHHIYIHAHNTIAIFQEAVHKQTSVAPRHQEYLFEGHLCVLEPSVSAQHIAHTTASSPLTLFSTAIPKGLAFRDPALDVPKFVPKVDLQADYNTAKGVLGAGYQALRLARALLDGQELMFRGLHWVMEVLQATCRRTLEVARTSLLYLSSSLGTERFSSVAGTPEIQELKAAAELRSRLRTLAEVLSRCSQNITETQESLSSLNRELVKSRDQVHEDRSIQQIQCCLDKMNFIYKQFKKSRMRPGLGYNEEQIHKLDKVNFSHLAKRLLQVFQEECVQKYQASLVTHGKRMRVVHETRNHLRLVGCSVAACNTEAQGVQESLSKLLEELSHQLLQDRAKGAQASPPPIAPYPSPTRKDLLLHMQELCEGMKLLASDLLDNNRIIERLNRVPAPPDV
As to B1, in assay [1], the binding entry is given as “binds”.

B2: IKK-ε ectopically expressed in HEK293T cells (enzyme, UniProt Q14164 1-716)
chain: MQSTANYLWHTDDLLGQGATASVYKARNKKSGELVAVKVFNTTSYLRPREVQVREFEVLRKLNHQNIVKLFAVEETGGSRQKVLVMEYCSSGSLLSVLESPENAFGLPEDEFLVVLRCVVAGMNHLRENGIVHRDIKPGNIMRLVGEEGQSIYKLTDFGAARELDDDEKFVSVYGTEEYLHPDMYERAVLRKPQQKAFGVTVDLWSIGVTLYHAATGSLPFIPFGGPRRNKEIMYRITTEKPAGAIAGAQRRENGPLEWSYTLPITCQLSLGLQSQLVPILANILEVEQAKCWGFDQFFAETSDILQRVVVHVFSLSQAVLHHIYIHAHNTIAIFQEAVHKQTSVAPRHQEYLFEGHLCVLEPSVSAQHIAHTTASSPLTLFSTAIPKGLAFRDPALDVPKFVPKVDLQADYNTAKGVLGAGYQALRLARALLDGQELMFRGLHWVMEVLQATCRRTLEVARTSLLYLSSSLGTERFSSVAGTPEIQELKAAAELRSRLRTLAEVLSRCSQNITETQESLSSLNRELVKSRDQVHEDRSIQQIQCCLDKMNFIYKQFKKSRMRPGLGYNEEQIHKLDKVNFSHLAKRLLQVFQEECVQKYQASLVTHGKRMRVVHETRNHLRLVGCSVAACNTEAQGVQESLSKLLEELSHQLLQDRAKGAQASPPPIAPYPSPTRKDLLLHMQELCEGMKLLASDLLDNNRIIERLNRVPAPPDV
On to B2, for which the binding entry in assay [2] and in assay [3] was “binds” in each case.

B3: TBK1, purified (enzyme, UniProt Q9UHD2 1-729)
chain: MQSTSNHLWLLSDILGQGATANVFRGRHKKTGDLFAIKVFNNISFLRPVDVQMREFEVLKKLNHKNIVKLFAIEEETTTRHKVLIMEFCPCGSLYTVLEEPSNAYGLPESEFLIVLRDVVGGMNHLRENGIVHRDIKPGNIMRVIGEDGQSVYKLTDFGAARELEDDEQFVSLYGTEEYLHPDMYERAVLRKDHQKKYGATVDLWSIGVTFYHAATGSLPFRPFEGPRRNKEVMYKIITGKPSGAISGVQKAENGPIDWSGDMPVSCSLSRGLQVLLTPVLANILEADQEKCWGFDQFFAETSDILHRMVIHVFSLQQMTAHKIYIHSYNTATIFHELVYKQTKIISSNQELIYEGRRLVLEPGRLAQHFPKTTEENPIFVVSREPLNTIGLIYEKISLPKVHPRYDLDGDASMAKAITGVVCYACRIASTLLLYQELMRKGIRWLIELIKDDYNETVHKKTEVVITLDFCIRNIEKTVKVYEKLMKINLEAAELGEISDIHTKLLRLSSSQGTIETSLQDIDSRLSPGGSLADAWAHQEGTHPKDRNVEKLQVLLNCMTEIYYQFKKDKAERRLAYNEEQIHKFDKQKLYYHATKAMTHFTDECVKKYEAFLNKSEEWIRKMLHLRKQLLSLTNQCFDIEEEVSKYQEYTNELQETLPQKMFTASSGIKHTMTPIYPSSNTLVEMTLGMKKLKEEMEGVVKELAENNHILERFGSLTMDGGLRNVDCL
Consider B3, for which the binding entry in assay [1] is on record as “binds”.

These data come from publication PMC7405385.
